Results taken from PubChem BioAssay AID743279 (National Center for Advancing Translational Sciences (NCATS), 2014).
The whole screen tested about 360,000 compounds, of which about 17,000 (4.7%) were called active. This list was built around the results that the source calls inconclusive (neither active nor inactive); the mix of calls is not that of the screen. No stated cut-off is given here; in the data, active means activity change below about -50%; inconclusive means mostly about -30% to -49%; inactive means weaker than that.

Assay: qHTS for Inhibitors of Inflammasome Signaling: IL-1-beta AlphaLISA Primary Screen
Details: THP-1 LPS/ATP IL-1B secretion, 16 h; at 57.5 µM, hits give low values
In short: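 Secreted IL-1B measured by AlphaLISA bead assay after 16 h compound exposure of THP-1 cells; compounds (final up to 57.5 uM) added 1 h before LPS (250 ng/mL) and ATP (1.25 mM) stimulation; lower signal means less secretion.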
On the % scale 0 is the no-effect control and ±100 the full control effect.

Row | SMILES | activity change
1 | CCC(C)Nc1nc(N)c([N+](=O)[O-])c(Nc2cc(OC)ccc2OC)n1 (stereo not given) | inconclusive: -47.5%
2 | Cc1ccccc1N=C(N)Nc1ccccc1C | inactive: 0%
3 | CCN(CC)S(=O)(=O)c1ccc(Cl)c(NC(=S)NC(=O)C2CCCC2)c1 | inconclusive: -30.7%
4 | CCC12CCCN3CCC4(C(=C(C(=O)OC)C1)Nc1ccccc14)C32 (stereo not given) | inactive: 25.7%
5 | CCOc1ccc(-c2c[n+]3c(n2-c2ccccc2)CCCCC3)cc1 | inconclusive: -44.8%
6 | CCN(CC)CCN1C(=O)c2cccc3cc(N)cc(c23)C1=O | active: -78.3%
7 | CCOC(=O)c1cnc2c(CC)cccc2c1NCCN1CCOCC1 | inconclusive: -33.3%
8 | COc1ccc(C(=O)NC(=S)N(CCC(C)C)c2c(N)n(Cc3ccccc3)c(=O)[nH]c2=O)cc1 | inconclusive: -43.2%
9 | CCOC(=O)C1=C(C)NC2=C(C1c1ccc([N+](=O)[O-])cc1)S(=O)(=O)c1ccccc12 (stereo not given) | inactive: -24.2%
10 | CN(C(=O)COC(=O)c1ccc2c(c1)OCCO2)c1ccccc1 | inconclusive: -46.3%
11 | CN(C)CCCN(C(=O)COc1ccc(Cl)cc1)c1nc2cc3c(cc2s1)OCCO3 | active: -93.6%
12 | Cc1ccc(C)c(NC(=S)NNC(=O)c2csc3c2CCC(C)C3)c1 (stereo not given) | inconclusive: -42.8%
13 | O=C(Nc1ccc(Cc2ccncc2)cc1)c1ccc([N+](=O)[O-])o1 | active: -96.3%
14 | COC(=O)[C@H](NC(=O)c1cc(-c2ccccc2)sc1N)C(C)C | inconclusive: -31.9%
15 | CC1CC(C)CN(C(=O)CSc2nnc(-c3ccco3)o2)C1 (stereo not given) | inconclusive: -39.8%
16 | OCCN1CCN(c2ncnc3sc(-c4ccccc4)cc23)CC1 | active: -93.3%
17 | N#C/C(=C\c1c[nH]c2ccccc12)C(=O)NC1CCCC1 | inactive: 0%
18 | Cc1cc(C)c(O)c(-c2cc(C(=O)NCCc3ccc(S(N)(=O)=O)cc3)[nH]n2)c1 | active: -50.9%
19 | CCCN1CCC(C(=O)NC(c2ccc(Cl)cc2)c2ccsc2)CC1 (stereo not given) | inconclusive: -36.6%
20 | CS(=O)(=O)c1ccc(C(=O)NCCN2C(=O)S/C(=C\c3cccnc3)C2=O)cc1[N+](=O)[O-] | active: -98%
21 | CCCCn1cnc2c(SCc3ccccc3Cl)nc(N)nc21 | active: -87.3%
22 | Cc1ccc(NC(=O)c2ccc(F)cc2)cc1S(=O)(=O)N1CCCCCC1 | inconclusive: -47.2%

Row | SMILES | activity change
23 | CCOC(=O)C1=C(CN2CCCCCC2)NC(=O)NC1c1cccc([N+](=O)[O-])c1 (stereo not given) | inconclusive: -49.9%
24 | Cc1cc(C)c(C(=O)Cn2nc(C(=O)O)c3ccccc3c2=O)cc1C | inactive: 8.42%
25 | COc1cc(-c2nc3ccc(C)cn3c2Nc2ccc3c(c2)OCCO3)ccc1O | inconclusive: -48.5%
26 | CCOC(=O)c1ccc(NC(=O)/C=C/c2cccs2)cc1 | inconclusive: -34.2%
27 | CCc1nnc(NC(=O)C(CC)CC)s1 | inactive: 0%
28 | CCOc1ccc(-n2c(SCC(=O)Nc3ccc(C(=O)O)cc3)nc3ccccc3c2=O)cc1 | inactive: 11.3%
29 | Cc1cc(Cl)ccc1N=c1ssnc1Cl | inconclusive: -40.2%
30 | CC(OC(=O)/C=C/c1ccc2ccccc2n1)C(=O)NCc1ccccc1 (stereo not given) | active: -75.4%
31 | Cc1ccccc1Oc1nc2c(C)cccn2c(=O)c1/C=C(\C#N)C(=O)NC1CCS(=O)(=O)C1 (stereo not given) | active: -96.7%
32 | COc1ccc(CCNc2oc(Cc3ccccc3)nc2C#N)cc1OC | inconclusive: -34.8%
33 | CCOc1ccc(OCc2ccc(C(=O)NN=Cc3ccc[nH]3)cc2)cc1 | inconclusive: -30.9%
34 | C#CCOCCOCCOCCNc1nc(N2CCN(C(=O)[C@H](CCCCN)n3cc(CCCC)nn3)CC2)nc(N2CCN(C(=O)[C@H](Cc3ccc(O)cc3)n3cc(CCO)nn3)CC2)n1 | inconclusive: -34.4%
35 | O=C(Cn1nnc(-c2ccccc2)n1)Nc1ccccc1N1CCOCC1 | inconclusive: -47.8%
36 | O=C1Nc2ccccc2N=C(c2ccc3c(c2)OCO3)C1N(C(=O)c1ccc2ccccc2c1)C1CC1 (stereo not given) | inconclusive: -34.7%
37 | CC(=O)Oc1ccc(N2C(=O)C3C(C2=O)C(C(=O)c2ccc(Cl)cc2)N2CCCC32)cc1 (stereo not given) | active: -101%
38 | c1ccc2c(c1)oc1c(Nc3ccc(CN4CCOCC4)cc3)ncnc12 | inconclusive: -36.4%
39 | COc1ccc(/C=N/NC(=O)CCN2CCCCC2c2cccnc2)cc1Cn1cc([N+](=O)[O-])cn1 (stereo not given) | inconclusive: -38.8%
40 | COc1cccc(C(=O)Nc2ccccc2C(=O)NC2CC2)c1 | inconclusive: -37.9%
41 | CC1(C)Cc2[nH]c3ccccc3c2C(C)(C)N1 | inconclusive: -32.9%
42 | CCC(=O)N1CCCc2cc(S(=O)(=O)N3CCN(c4ncccn4)CC3)ccc21 | inactive: -1.2%
43 | O=S(=O)([N-]c1nc2ccccc2nc1-[n+]1ccc(Cc2ccccc2)cc1)c1ccc(Br)s1 | inconclusive: -37.8%
44 | COc1cc(NC(=O)CN2CCN(S(=O)(=O)c3ccc(C(C)C)cc3)CC2)cc(OC)c1 | inconclusive: -39.8%

Row | SMILES | activity change
45 | Cc1ccc(-c2nnn(CC(=O)NC(=O)NC3CCCCC3)n2)cc1 | inconclusive: -43.3%
46 | COc1ccc(C2Oc3ccccc3C3=C2C(c2cccs2)n2ncnc2N3)cc1 (stereo not given) | inactive: -15%
47 | Cc1ccc(C(CNS(=O)(=O)c2ccc(Cl)cc2)N2CCN(C)CC2)cc1 (stereo not given) | inconclusive: -30.1%
48 | COc1ccc(NC(=O)c2ccc(-n3cccn3)c([N+](=O)[O-])c2)cc1 | inconclusive: -34.3%
49 | Cc1scc(C(=O)N2CCN(c3ccc(Cl)cc3)CC2)c1C | inconclusive: -37.8%
50 | COC(=O)c1cc(COC(=O)c2nc3nc(C)cc(C)n3n2)oc1C | inactive: 6.85%
51 | NC(=O)CC(NC(=O)c1ccc(Br)cc1)c1ccc(NC2CCCCCC2)c([N+](=O)[O-])c1 (stereo not given) | inactive: 11.9%
52 | COc1ccccc1NC(=O)CN1CCN(CC(=O)Nc2ccc(Cl)c(C(F)(F)F)c2)CC1 | active: -79.8%
53 | O=C(Nc1nc(-c2ccc(Cl)cc2)cs1)C1=COCCO1 | active: -84%
54 | CC(=O)Nc1cccc(NC(=O)c2ccccc2OCc2ccccc2)c1 | inconclusive: -31.8%
55 | Cc1nc2ccccc2cc1OCc1ccc(Cl)cc1 | inconclusive: -36.4%
56 | O=C(Nc1cccc(S(=O)(=O)N2CCCCC2)c1)c1ccco1 | inactive: 4.01%
57 | c1ccc(CNc2nc3ccccc3[nH]2)cc1 | active: -60.5%
58 | O=C(c1cc2nc(-c3ccccc3)cc(-c3ccccc3)n2n1)N1CCN(C(=O)c2ccco2)CC1 | inconclusive: -34.7%
59 | CC(=O)Nc1ccc(C(=O)OCC(=O)N(c2ccccc2)C2CCS(=O)(=O)C2)cc1 (stereo not given) | inactive: -5.84%
60 | COc1ccc(C(=O)Nc2ccc3c(c2)OCCO3)cc1Br | inconclusive: -47.6%
61 | COc1ccccc1NC(=O)CSc1c2c(nc3ccccc13)CCC2 | inconclusive: -48.4%
62 | N#C/C(=N\Nc1ccc(Cl)cc1)C(=N)N1CCCCC1 | inconclusive: -42.4%
63 | CC(C)CC1C(=O)N(Cc2cn(Cc3ccco3)nn2)CCS(=O)(=O)N1Cc1ccc(-c2ccccc2)cc1 (stereo not given) | inconclusive: -45.3%
64 | Cc1ccc(C(=O)NNC(=O)CCC(=O)NCc2ccccc2)cc1Br | inconclusive: -34.5%
65 | O=C(Nn1c(SCc2cccc([N+](=O)[O-])c2)nc2ccccc2c1=O)c1ccccc1 | inactive: -24.4%
66 | COc1ccc(NC(=O)C2Cc3c(-c4ccccc4Oc4ccccc4)ccnc3O2)cc1 (stereo not given) | inconclusive: -34.3%

Row | SMILES | activity change
67 | COc1ccc(CCNC(=O)Nc2nnc([C@@H]3C[C@H](O)[C@@H](CO)O3)s2)cc1OC | inactive: 13.9%
68 | O=c1c2c3nc4ccccc4nc3n(-c3ccc4c(c3)OCCO4)c2ncn1C1CCCC1 | inactive: -1.35%
69 | C=Cn1cc[n+](CC(=O)c2ccc(-c3ccccc3)cc2)c1 | inconclusive: -45.7%
70 | O=C(OCc1nc2scc(-c3ccccc3)c2c(=O)[nH]1)c1cc([N+](=O)[O-])ccc1Cl | inconclusive: -36.6%
71 | COc1ccc(CNC(=S)Nc2ccccc2Cl)cc1 | inactive: 0%
72 | CCCCOc1ccc2c(c1)/C(=C(\C(Cl)=C(Cl)Cl)[N+](=O)[O-])N2 | inactive: 0.347%
73 | COC(=O)C1=C(C)NC(=O)/C1=C\c1cc(C)n(-c2ccccc2F)c1C | active: -114%
74 | O=C(COC(=O)/C=C/c1ccc(F)cc1)NCc1ccc2c(c1)OCO2 | inactive: 4.29%
75 | Cc1ccc2cccc(Oc3ncnc4scc(-c5ccccc5)c34)c2n1 | inactive: -0.133%
76 | C=CCNc1nc(N)c(C(=O)c2ccc3c(c2)OCO3)s1 | inconclusive: -46.3%
77 | CCn1c(CCCOc2ccc(Cl)cc2Cl)n[nH]c1=S | inactive: -0.831%
78 | COc1ccccc1S(=O)Cc1ccc(C(=O)NCCc2ccc(Cl)cc2)o1 (stereo not given) | inconclusive: -37.6%
79 | COc1ccc(CCNc2nc(-c3cccnc3)nc3ccccc23)cc1OC | inconclusive: -49.8%
80 | CC(O)CNc1nc2sc3c(c2c(=O)n1CCc1ccccc1)CCCCC3 (stereo not given) | active: -81.9%
81 | CC1CCN(CCc2nc3cc(NS(=O)(=O)c4ccc(F)cc4)ccc3n2C)CC1 | inactive: 10.7%
82 | C=CCn1c(SCC(=O)Nc2ccc(F)cc2F)nnc1-c1cnccn1 | inconclusive: -39.1%
83 | Cc1ccc(NC(=O)CC2SC3=NCCCN3C2=O)c(C)c1 (stereo not given) | inactive: 0%
84 | COc1ccc(C2=Nn3c(nnc3-c3cccnc3)SC2)cc1OC | inconclusive: -41.6%
85 | CCc1nc2ccc(C(=O)NCCc3ccccc3OC)cc2nc1CC | inconclusive: -34.5%
